Test results from PubChem BioAssay AID686979 (National Center for Advancing Translational Sciences (NCATS), 2013).
About 50,000 (12%) of roughly 420,000 compounds were called active. Inconclusive results, whose numbers are uncertain, are shown with a selection of clear calls. The call rests on the fitted dose curve; in most records, active means well fitted inhibition curve with a large enough effect; inconclusive means small, poorly fitted or top-dose-only effect; inactive means flat fitted curve, though single readings scatter. Potencies of inconclusive entries are left out as doubtful fits.

assay: qHTS for Inhibitors of human tyrosyl-DNA phosphodiesterase 1 (TDP1): qHTS in cells in presence of CPT; details: chicken DT40 Tdp1-/-;hTDP1 cells + 20 nM CPT, ATP luminescence, 48 h; activity change, negative = growth inhibition: at 46.2 µM (top of the series) unless noted; further: nearly all actives have a fitted effect of over 55% in size
Procedure, shortened: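 Chicken DT40 Tdp1-/- cells complemented with human TDP1, 400 cells/well, exposed to compounds plus 20 nM camptothecin for at least 48 h at 37 C; viability read as ATP content by CellTiter-Glo luminescence.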
On the % scale 0 is the no-effect control and ±100 the full control effect; potency means the concentration at half of the fitted maximal effect; tags describe the fitted curve by direction and shape.

| Compound | Potency | activity change, negative = growth inhibition |
| --- | --- | --- |
| N=c1c(C(=O)NC2CCCC2)cc2c(=O)n3ccccc3nc2n1C1CCCCC1 | inactive |  |
| O=C(Nc1cc(-c2ccccc2)nn1-c1ccccc1F)c1ccc([N+](=O)[O-])cc1 | inconclusive [inhibitor, single point] |  |
| CCOc1ccc(-c2cccc(NS(=O)(=O)c3ccccc3C(F)(F)F)c2)nn1 | inconclusive [inhibitor, single point] |  |
| COc1ccc(CN2C(=O)CN(S(C)(=O)=O)CC2(C)C(=O)Nc2c(C)cccc2C)cc1 (centres undefined) | inactive |  |
| Cc1ccc(NC(=O)Cn2cc(C(=O)c3ccco3)c3ccccc32)cc1 | inconclusive [inhibitor, single point] |  |
| CC(C)CC1CCCCC1OC(=O)C[N+]1(C)CCCCC1 (centres undefined) | inconclusive [inhibitor, single point] |  |
| CCc1ccc(OCC(=O)O/N=C(\N)c2ccccn2)cc1 | inactive |  |
| CC1=C(C(=O)Nc2ccccc2)C(c2ccc(C)o2)n2c(s/c(=C/c3ccccc3)c2=O)=N1 (centres undefined) | inactive |  |
| Cc1cccc(NC(=S)NC(=O)c2ccc(-c3ccccc3)cc2)n1 | inconclusive [inhibitor, single point] |  |
| O=C(CCCn1c(=S)[nH]c2cc3c(cc2c1=O)OCO3)N1CCN(c2ccccn2)CC1 | inconclusive [inhibitor, single point] |  |
| CC(C)=CCC/C(C)=C/CNC(=O)C[C@H]1C[C@H](C(=O)N2CCOCC2)[C@@]2(CCC3CCCC3)c3[nH]c4cc(CCC(=O)N(C)C)ccc4c3CCN2C1=O | active: 5.8 µM |  |
| NS(=O)(=O)c1ccc(NCc2ccccc2OCc2ccccc2F)cc1 | inconclusive [inhibitor, partial curve] |  |
| O=C(Nc1ccccc1)c1nc[nH]c1C(=O)NCCCCNC(=O)c1[nH]cnc1C(=O)Nc1ccccc1 | active: 6.51 µM |  |
| COc1ccc(C(CCN2CCN(c3ccccc3)CC2)c2c(O)cc(OC)cc2OC)cc1 (centres undefined) | active: 16.4 µM |  |
| CN1CCN(C(=O)C2CCCN(c3ncnc4c3nc3n4CCCCC3)C2)CC1 (centres undefined) | inactive |  |
| Cc1ccc(C2CC(c3ccc(Cl)cc3)n3nc(N)nc3N2)cc1 (centres undefined) |  | inconclusive: -31.4% [inhibitor] |
| CCN1C(=NCc2cccc(C(F)(F)F)c2)N[C@@H](c2cccc(C(F)(F)F)c2)C(C(=O)OC)=C1C | active: 4.47 µM |  |
| CCOc1ccc2oc(C(=O)N3CC(C)OC(C)C3)c(C)c2c1 (centres undefined) | inconclusive [inhibitor, single point] |  |
| COc1ccc(-c2cc3nccc(-c4cc(Cl)c(C)cc4O)n3n2)cc1 | inactive |  |
| FC(F)(F)c1ccc2c(c1)N1CCCC1CN2 (centres undefined) | inactive |  |
| CCn1c(C(=O)N2CCCC(C(=O)N3CCN(c4ccccc4)CC3)C2)cc2sccc21 (centres undefined) | inconclusive [inhibitor, single point] |  |
| C=CCn1c(NC(C)c2cc(Cl)ccc2O)nc2ccccc21 (centres undefined) | inconclusive [inhibitor, single point] |  |
| CCOC(=O)c1cnc2ccc(C)cn2c1=O | inactive |  |

| Compound | Potency | activity change, negative = growth inhibition |
| --- | --- | --- |
| CCc1ccc(S(=O)(=O)NCc2ccc(C(=O)NCCN(Cc3ccccc3)C(C)C)cc2)cc1 | active: 20.6 µM |  |
| CC1(C(=O)NS(=O)(=O)c2cccc(Cl)c2)CCN1C(=O)C1(c2ccc(Cl)cc2)CCC1 (centres undefined) |  | inconclusive: -31.3% [inhibitor] |
| O=C(C1=C[C@H](c2csc3ccccc23)C[C@H](OCc2ccc(CO)cc2)O1)N1CCCCCCC1 | inconclusive [inhibitor, single point] |  |
| Cn1c(SCC(=O)Nc2ccc3c(c2)OCCO3)nnc1-c1ccco1 | inactive |  |
| COc1ccc(C2CC(c3cccs3)=NN2C(=O)CSc2nc3c(cnn3-c3ccccc3)c(=O)[nH]2)cc1 (centres undefined) | inconclusive [inhibitor, single point] |  |
| CC(C)c1ccc(CC(=O)N2CCC2(C)C(=O)NCC(C)(C)C)cc1 (centres undefined) | inconclusive [inhibitor, single point] |  |
| CC1Cc2nc(SCC(N)=O)n(Cc3ccccc3)c(=O)c2S1 (centres undefined) | inactive |  |
| Cc1nn(CC(=O)NCCc2ccccc2)c(=O)c2c1sc1ccccc12 | inconclusive [inhibitor, single point] |  |
| CCN(C[C@H]1N[C@@](C)(C(=O)OC)[C@H]2C(=O)N(Cc3ccccc3)C(=O)[C@@H]12)C(=O)c1ccc(C(C)(C)C)cc1 | inconclusive [inhibitor, single point] |  |
| CCn1cc(/C=N/NC(=O)c2cc3c(ccc4ccccc43)o2)c2ccccc21 | inconclusive [inhibitor, single point] |  |
| Cc1cc(C(C)(C)C)cc(C)c1CCNC(=O)c1c(C)noc1C | active: 29.1 µM |  |
| CC1=CC(C)(C)Nc2ccc(OC(=O)CN3C(=O)CCC3=O)cc21 | active: 2.91 µM |  |
| COc1ccc(CC(=O)Nc2cc(S(=O)(=O)N3CCOCC3)ccc2N2CCOCC2)cc1 | inactive |  |
| CCn1cc(C(=O)OCC(=O)Nc2c(C)cccc2C)c(=O)c2ccc(C)nc21 | active: 16.4 µM |  |
| Oc1cccc(/C=C/c2ccc3cccc(O)c3n2)c1 | active: 18.4 µM |  |
| CCOCC(=O)Nc1nnc(C)s1 | inconclusive [inhibitor, partial curve, poor fit] |  |
| CCOc1ccccc1NC(=O)CSC1=Nc2ccccc2C2=NC(CC(=O)NCc3ccc4c(c3)OCO4)C(=O)N12 (centres undefined) | inconclusive [inhibitor, single point] |  |
| COc1cc(NC(=O)c2cc(S(=O)(=O)N3CCCCC3)ccc2N2CCOCC2)cc(OC)c1 | active: 20.6 µM |  |
| COc1cc(C(=O)Nc2cccc3c2CCCC3)cc(OC)c1OC | inconclusive [inhibitor, partial curve] |  |
| Cc1cccc(NC(=O)CSCC(=O)N(C)Cc2ccc(Cl)c(Cl)c2)c1 | inconclusive [inhibitor, partial curve] |  |
| Cc1cccc2sc(NNC(=O)C3=COCCO3)nc12 | active: 13 µM |  |
| CC(C)C[C@H]1CNC(=S)N1C[C@H]1CCCN1C[C@H](Cc1ccc(O)cc1)N1C[C@H](CC(C)C)N(CC2CCCCCC2)C1=S | active: 16.4 µM |  |
| CC(C)c1nc(CNC(=O)c2ccc(OC3CCN(Cc4ccccn4)CC3)cc2)cs1 | inconclusive [inhibitor, single point] |  |

| Compound | Potency | activity change, negative = growth inhibition |
| --- | --- | --- |
| Cc1cc(C)cc(NC(=S)NCCSc2ccc(Cl)cc2)c1 | inconclusive [inhibitor, single point] |  |
| O=C(Nc1cccc(Cl)c1)Nc1nccs1 | inconclusive [inhibitor, full curve] |  |
| COc1ccc(N(CC(=O)Nc2cc(OC)ccc2OC)S(=O)(=O)c2c(C)nn(C)c2C)cc1 | active: 20.6 µM |  |
| CC(=O)N(C)c1ccc(N=Nc2c(C)[nH]n(-c3ccccc3)c2=O)cc1 | inconclusive [inhibitor, partial curve] |  |
| Cc1ccnc(N2C(=O)c3ccccc3C2O)c1 (centres undefined) | inconclusive [inhibitor, single point] |  |
| COc1ccc(NC(=O)C2(C)CCN2C(=O)c2ccc(C(C)(C)C)cc2)cc1OC (centres undefined) | active: 13 µM |  |
| CCN(C(=O)Cc1ccccc1OC)c1nnc(-c2ccncc2)s1 | inconclusive [inhibitor, single point] |  |
| Cc1ccc(S(=O)(=O)NCC(c2ccc(N(C)C)cc2)N2CCc3ccccc32)cc1 (centres undefined) | inconclusive [inhibitor, single point] |  |
| CN(c1nc2ccccc2[nH]c1=O)C1CCCCC1 | inconclusive [inhibitor, single point] |  |
| CCN(c1ccccc1)S(=O)(=O)c1ccc(Oc2ccccc2)c(N)c1 | inconclusive [inhibitor, single point] |  |
| CCOC(=O)C1=CCN(S(=O)(=O)c2ccccc2F)C1c1ccccc1 (centres undefined) | inconclusive [inhibitor, single point] |  |
| CC(C)(CNC(=O)CC1C(=O)NCCN1Cc1cccc(F)c1)N1CCOCC1 (centres undefined) | inactive |  |
| CCCCSCCCNC(=O)c1c[nH]c2ccc(S(=O)(=O)Nc3cccc(OC)c3)cc2c1=O | active: 20.6 µM |  |
| COc1ccc(C(=O)CC(=O)C(=O)Nc2ccccc2C(F)(F)F)cc1 | active: 10.3 µM |  |
| CCn1cc(/C=C2/SC(=S)NC2=O)c(C)n1 | inactive |  |
| COc1ccc(-n2ncc3c2CC(C)(C)CC3NC(=O)CCc2c(C)nn(C)c2C)cc1 (centres undefined) | inconclusive [inhibitor, single point] |  |
| COc1ccc(N2CCN(C(=O)CSc3ncnc4c3cnn4-c3ccc(OC)cc3)CC2)cc1 | inconclusive [inhibitor, single point] |  |
| CC(C)(C)c1ccc(C(=O)N2CCC3(CC2)CC3C(=O)NCCc2ccccn2)cc1 (centres undefined) |  | inactive: -7.53% [at 9.04 µM] |
| Cc1ccc(N2C(=O)CC(N(O)C3CC(=O)N(c4ccc(C)cc4)C3=O)C2=O)cc1 (centres undefined) | inconclusive [inhibitor, single point] |  |
| O=C(Nc1ccc(Cl)cc1)c1ccc2snnc2c1 | inconclusive [inhibitor, single point] |  |
| CC1(c2nnc(-c3ccccc3)o2)CC(c2c(Cl)cccc2Cl)=NO1 (centres undefined) | inconclusive [inhibitor, single point] |  |
| CCN(Cc1ccccc1)Cc1c(O)ccc2oc(C)c(C(=O)Nc3ccccc3C)c12 | active: 13 µM |  |
| COc1ccccc1CN(Cc1nc2ccccc2c(=O)[nH]1)C(=O)Nc1ccc(C)cc1 | inconclusive [inhibitor, single point] |  |
